Assay results taken from the supplement of paper PMC8728848.
The other results are listed elsewhere or left out.

Columns and labels:
Experiment in all cases: glycan array binding signal (z-score within array); higher = stronger binding
Conditions in all cases: glycan notation: IUPAC condensed, linker removed
[1] = target: Man(a1-2)Man(a1-3)[Man(a1-2)Man(a1-6)]Man(a1-6)[Man(a1-2)Man(a1-2)Man(a1-3)]Man(b1-4)GlcNAc(b1-4)GlcNAc
Procedure, shortened: (§1)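 The Consortium for Functional Glycomics database supplied 3228 glycan arrays, of which those lacking an available protein sequence were dropped. The binding signal, a within-array Z-score, was averaged across arrays of the same protein sequence and across linkers. Negative scores can be read as non-binding.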

[2] = target: Man(a1-2)Man(a1-3)[Man(a1-6)]Man(a1-6)[Man(a1-2)Man(a1-3)]Man(b1-4)GlcNAc(b1-4)GlcNAc
Procedure, shortened: as §1

[3] = target: Man(a1-2)Man(a1-6)[Man(a1-3)]Man(a1-6)[Man(a1-2)Man(a1-2)Man(a1-3)]Man
Procedure, shortened: as §1

[4] = target: Man(a1-2)Man(a1-6)[Man(a1-3)]Man(a1-6)[Man(a1-2)Man(a1-2)Man(a1-3)]Man(b1-4)GlcNAc(b1-4)GlcNAc
Procedure, shortened: as §1

Man(a1-3)[Man(a1-6)]Man = target: Man(a1-3)[Man(a1-6)]Man
Procedure, shortened: as §1

[5] = target: Man(a1-3)[Man(a1-6)]Man(a1-6)[Man(a1-2)Man(a1-3)]Man(b1-4)GlcNAc(b1-4)GlcNAc
Procedure, shortened: as §1

[6] = target: Man(a1-3)[Man(a1-6)]Man(a1-6)[Man(a1-3)]Man
Procedure, shortened: as §1

[7] = target: Man(a1-3)[Man(a1-6)]Man(a1-6)[Man(a1-3)]Man(b1-4)GlcNAc(b1-4)GlcNAc
Procedure, shortened: as §1

[8] = target: Man(a1-3)[Man(a1-6)]Man(b1-4)GlcNAc(b1-4)GlcNAc
Procedure, shortened: as §1

[9] = target: Man(a1-3)[Man(a1-6)]Man(b1-4)GlcNAc(b1-4)[Fuc(a1-6)]GlcNAc
Procedure, shortened: as §1

Man(a1-6)Man = target: Man(a1-6)Man
Procedure, shortened: as §1

Man(b1-4)GlcNAc = target: Man(b1-4)GlcNAc
Procedure, shortened: as §1

MurNAc(b1-4)GlcNAc = target: MurNAc(b1-4)GlcNAc
Procedure, shortened: as §1

Neu5Ac(a2-3)Gal = target: Neu5Ac(a2-3)Gal
Procedure, shortened: as §1

[10] = target: Neu5Ac(a2-3)Gal(b1-3)GalNAc
Procedure, shortened: as §1

[11] = target: Neu5Ac(a2-3)Gal(b1-3)GalNAc(b1-3)Gal(a1-4)Gal(b1-4)Glc
Procedure, shortened: as §1

[12] = target: Neu5Ac(a2-3)Gal(b1-3)GalNAc(b1-4)[Neu5Ac(a2-3)]Gal(b1-4)Glc
Procedure, shortened: as §1

[13] = target: Neu5Ac(a2-3)Gal(b1-3)GalNAc(b1-4)[Neu5Ac(a2-8)Neu5Ac(a2-3)]Gal(b1-4)Glc
Procedure, shortened: as §1

[14] = target: Neu5Ac(a2-3)Gal(b1-3)GalNAc6S
Procedure, shortened: as §1

[15] = target: Neu5Ac(a2-3)Gal(b1-3)GlcNAc
Procedure, shortened: as §1

[16] = target: Neu5Ac(a2-3)Gal(b1-3)GlcNAc(b1-2)Man
Procedure, shortened: as §1

[17] = target: Neu5Ac(a2-3)Gal(b1-3)GlcNAc(b1-2)Man(a1-3)[GlcNAc(b1-4)][Neu5Ac(a2-3)Gal(b1-3)GlcNAc(b1-2)Man(a1-6)]Man(b1-4)GlcNAc(b1-4)GlcNAc
Procedure, shortened: as §1

[18] = target: Neu5Ac(a2-3)Gal(b1-3)GlcNAc(b1-2)Man(a1-3)[Neu5Ac(a2-3)Gal(b1-3)GlcNAc(b1-2)Man(a1-6)]Man(b1-4)GlcNAc(b1-4)GlcNAc
Procedure, shortened: as §1

[19] = target: Neu5Ac(a2-3)Gal(b1-3)GlcNAc(b1-3)Gal(b1-3)GlcNAc
Procedure, shortened: as §1

[20] = target: Neu5Ac(a2-3)Gal(b1-3)GlcNAc(b1-3)Gal(b1-4)GlcNAc
Procedure, shortened: as §1

[21] = target: Neu5Ac(a2-3)Gal(b1-3)GlcNAc(b1-3)GalNAc
Procedure, shortened: as §1

[22] = target: Neu5Ac(a2-3)Gal(b1-3)GlcNAc(b1-4)Gal(b1-4)Glc
Procedure, shortened: as §1

[23] = target: Neu5Ac(a2-3)Gal(b1-3)GlcNAc(b1-6)GalNAc
Procedure, shortened: as §1

[24] = target: Neu5Ac(a2-3)Gal(b1-3)GlcNAc6S
Procedure, shortened: as §1

[25] = target: Neu5Ac(a2-3)Gal(b1-3)[Fuc(a1-4)]GlcNAc
Procedure, shortened: as §1

B1: Blon2468mut (Bifidobacterium longum) (protein)
chain: MTFIKQMMPRYVASMTAGIVAAAMAATCAFAPVANADAVSPTQETIQSTGRHFMVYYRAWRDVTMKGVNTDLPDDNWISMYDIPYGVDVVNIFSYVPSGQEEQAQPFYDKLKSDYAPYLHSRGIKLVRGIDYTGVAVNGFRTFMKEQNKTESEATEADYDAYAKQVIDKYMISVGLDGLDIDMQAHPNDADVKISDNVIRALSKHIGPKSAKPDTTMFLYDTNGSYLNPFKNVAECFDYVAYQQYGSSSDRTARAAADYQPYIGNEFVPGLTFPEEGDMNNRWYDATEPYEESHFYQVASYVREHNLGGMFVYALDRDGRNYDEDLRRIVPSNLLWTKTAIAESEGMALDTAKTAANHYLDRMSLRQVIDDNAASADKARDMVGKAANLYETNKAVLGGDYGEGFSNTYDPTLEAGLLGIDISVLQQQIDKSSEIIGADTAESDAKTALRMARDAAIDGLTGKIYTADQVSAWSQALKAALDATVPVPTPDSTDQNGNRDKVTNHKVQGQPKQLSATGISTDIIVAVGVTLAIAGVALSLSRKLS
With B1 the “glycan array binding signal (z-score)” value [1] was -0.037, the “glycan array binding signal (z-score)” value [2] was -0.083 and the “glycan array binding signal (z-score)” value [3] was -0.044. The “glycan array binding signal (z-score)” value [4] was -0.041, the “glycan array binding signal (z-score)” value (Man(a1-3)[Man(a1-6)]Man) was -0.056 and the “glycan array binding signal (z-score)” value [5] was -0.054. The “glycan array binding signal (z-score)” value [6] was 0.323, the “glycan array binding signal (z-score)” value [7] was -0.065 and the “glycan array binding signal (z-score)” value [8] was 6.11. The “glycan array binding signal (z-score)” value [9] was 22.6, the “glycan array binding signal (z-score)” value (Man(a1-6)Man) was -0.057 and the “glycan array binding signal (z-score)” value (Man(b1-4)GlcNAc) was -0.072. For the same binder, the “glycan array binding signal (z-score)” value (MurNAc(b1-4)GlcNAc) was -0.087, the “glycan array binding signal (z-score)” value (Neu5Ac(a2-3)Gal) was -0.061 and the “glycan array binding signal (z-score)” value [10] was -0.088. The “glycan array binding signal (z-score)” value [11] was -0.08, the “glycan array binding signal (z-score)” value [12] was -0.087 and the “glycan array binding signal (z-score)” value [13] was -0.082. For the same binder, the “glycan array binding signal (z-score)” value [14] was -0.077, the “glycan array binding signal (z-score)” value [15] was -0.075 and the “glycan array binding signal (z-score)” value [16] was -0.092. The “glycan array binding signal (z-score)” value [17] was -0.075, the “glycan array binding signal (z-score)” value [18] was -0.047 and the “glycan array binding signal (z-score)” value [19] was -0.074. For the same binder, the “glycan array binding signal (z-score)” value [20] was -0.094, the “glycan array binding signal (z-score)” value [21] was -0.031 and the “glycan array binding signal (z-score)” value [22] was -0.062. For the same binder, the “glycan array binding signal (z-score)” value [23] was -0.049, the “glycan array binding signal (z-score)” value [24] was -0.058 and the “glycan array binding signal (z-score)” value [25] was -0.078.
